The other results are listed elsewhere or left out.
Test system: PF3D7_0420300 AP2 domain 1 (GST-tagged)
Assay: gcPBM binding intensity (ln(normalized median fluorescence intensity)); higher = stronger DNA binding
Procedure, shortened: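 Alexa488 anti-GST antibody, scanned at 488 nm, detected GST-tagged P. falciparum DNA-binding domains that had been expressed in E. coli and incubated for 1 h on an Agilent 4 × 180k array. The array carried primer-extended double-stranded 36-bp intergenic genomic probes and negative controls. Binding intensity is the highest Masliner-normalised natural-log median intensity across replicate spots of either orientation of each probe.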

First: TATAAGCTAAGTTGTTGTACAAAAAGGAAAAGTATA [XGTACX_site3741]
Second: AAAAAAATCTCCAGTGTGCACAATCACATAATATAT [GTGCAC_site9833]
The “gcPBM binding intensity (ln)” value of the first is lower: 9.49 for the first, 9.67 for the second.

Going from “GAGATAAAATAAAACACACACATATATATATAGAAT [CACACA_site2197]” to “TTTTCTTTTAAGTTTGTTTTACACTTTTTATTTTGA [CACACA_negctrl_site1581]”, the “gcPBM binding intensity (ln)” value falls from 10.1 to 9.36.

First: TATACGTATTTTATATGTACACATATACATATTTAT [XGTACX_site5301]
Second: AATATATGGTTTCATGATATTAAATTCAATTTAATG [GTGCAC_negctrl_site370]
The “gcPBM binding intensity (ln)” value of the first is higher: 9.29 for the first, 8.99 for the second.

First: AAATATAAATATACTCGTACATATATATATATATAT [XGTACX_site6940]
Second: ACTATATTTCATAACAGTACATATTCCTGAAACATC [XGTACX_site4924]
The “gcPBM binding intensity (ln)” value of the first is higher: 9.22 for the first, 9.19 for the second.

Compared with “ACAATATAAAAAAATTGTACATAATATATAATATTA [XGTACX_site1040]”, “CATGCTTATATGTGCACACACAAAAGAAAAGAAAAA [CACACA_site1655]” is higher in “gcPBM binding intensity (ln)” value: 9.1 for the first, 9.62 for the second.

Going from “GATATATTACTTAAAATACACACCATGGAAAAGTTT [CACACA_site2606]” to “GAATATGTTAACATTTGTACATAAAATTTTTTACAA [XGTACX_site2444]”, the “gcPBM binding intensity (ln)” value falls from 9.4 to 8.93.

Going from “ATGTTTAAATTTTTCAGTACATATATTCTAGTAAAA [XGTACX_site1010]” to “AATATATATATATATCCACACACATACATATATTAA [CACACA_site7907]”, the “gcPBM binding intensity (ln)” value rises from 9.11 to 9.7.

Going from “ATGGTTTTTATTTTATGTACTTACTAAAATGAATAA [XGTACX_site4317]” to “TACATAAAAATATATGCATGTTCTTATTTAATAAAA [TGCATGCA_site743]”, the “gcPBM binding intensity (ln)” value falls from 9.23 to 8.84.

Going from “AAAATATTATTACAGAAACAAAAAGAAAAATATATA [GTGCAC_negctrl_site285]” to “ATATGTAAAATATGGTGTACAATCAAATAAAAAAAA [XGTACX_site6270]”, the “gcPBM binding intensity (ln)” value rises from 9.44 to 9.49.

Compared with “ATTAATATATTTACCACACACCCATTTCGATTTTAT [CACACA_site3605]”, “TATTTTATTTTTTGTTGTACATATATATTATATATA [XGTACX_site4513]” is lower in “gcPBM binding intensity (ln)” value: 9.73 for the first, 9.46 for the second.

Compared with “CATATAAAAGGACACACACACACATATATATATATA [CACACA_site4674]”, “TTTATTTTATCATTTGCACACGCACGCCCACATAAA [CACACA_site353]” is lower in “gcPBM binding intensity (ln)” value: 10 for the first, 9.4 for the second.

First: CAAAATATATTGAATTGTACATAAAAATAAAAATTA [XGTACX_site4193]
Second: AGCAGTCAGCAGGACAGTACACAGTAGCCAGTAACT [XGTACX_site1999]
The “gcPBM binding intensity (ln)” value of the first is higher: 9.19 for the first, 9.11 for the second.

Compared with “ATAAAATAAATATAACCACACACGAAAGAGAGAGAA [CACACA_site9075]”, “TTTTTAGGAAAGGCGGCACACATTTATATATTTATT [CACACA_site3672]” is lower in “gcPBM binding intensity (ln)” value: 10.1 for the first, 9.38 for the second.

Going from “TTCCAACCAATACAAACATGCATTTGAAAAAATGTA [TGCATGCA_site119]” to TTCGCCCTAAATAGAGTGCATTATATATATTAATAT, the “gcPBM binding intensity (ln)” value rises from 9.1 to 9.27.

Compared with “ATACATTCTTATTACTGTACAGGGTTAATTATTTGT [XGTACX_site948]”, “TGGAGATAAAATAAAACACACACATATATATATATA [CACACA_site8683]” is higher in “gcPBM binding intensity (ln)” value: 9.47 for the first, 9.72 for the second.

First: ATTATTTTATTTATTGGTACGTAATTGTAGATTTCT [XGTACX_site3697]
Second: GCAAAAACAAACGTCACACATACAAAGGCCGTGTAA [CACACA_site6043]
The “gcPBM binding intensity (ln)” value of the first is lower: 9.27 for the first, 9.33 for the second.

First: TCCACACAATTTATAACATGCAAAAAGGCAATAATA [TGCATGCA_site773]
Second: TAGGTATATAAATAATGTACATATAAACTATATAGA [XGTACX_site2597]
The “gcPBM binding intensity (ln)” value of the first is lower: 9.13 for the first, 9.44 for the second.

Compared with “ATGTTGAGTATATATACACACATACAGATATATATA [CACACA_site4967]”, “ATTTTTTTGGAATTCACACACAAAAAAAAAAATAAA [CACACA_site2081]” is lower in “gcPBM binding intensity (ln)” value: 9.52 for the first, 9.39 for the second.

Compared with “AATTAGACATAATATACACACATATATTATATATAT [CACACA_site2691]”, TTCAAAAGATATATCGTGCACATATATATGATGAAA is lower in “gcPBM binding intensity (ln)” value: 9.54 for the first, 9.21 for the second.

Going from “CACATTTAGAAATAGTTTTATTTTGTATATTCTATT [CACACA_negctrl_site1382]” to “TATACATTTATGTACACACACATATCTGTATATTTA [CACACA_site5617]”, the “gcPBM binding intensity (ln)” value rises from 9.29 to 9.64.

First: GTATGTGTATGTGTATGTACATATGTATGTATAAAA [XGTACX_site8191]
Second: TTTTGTATATATCACATTAAAAGAAAAAAATATATG [GTGCAC_negctrl_site120]
The “gcPBM binding intensity (ln)” value of the first is higher: 9.37 for the first, 9 for the second.

Going from “TATATATATTTCCAGTGTACTTATTTTTTAATCAAT [XGTACX_site8220]” to “TCCTCAAAAAAATAAAATAATTTATACTTTTTTAAA [GTGCAC_negctrl_site724]”, the “gcPBM binding intensity (ln)” value falls from 9.42 to 8.68.

Compared with “TTCTCAAAGAAGAAAAAGTTTTTTTAATTTTTCTTT [XGTACX_negctrl_site543]”, “AATAAAAAATATAACACAAATATGTATATATATATA [TGCATGCA_negctrl_site245]” is higher in “gcPBM binding intensity (ln)” value: 8.67 for the first, 9.19 for the second.

First: ACATATAAAATGTATACACACAAATATTACATATAT [CACACA_site1472]
Second: CAAAAAAAAAAAAAAAATAAATAAAGGAAATAAAAA [CACACA_negctrl_site20]
The “gcPBM binding intensity (ln)” value of the first is higher: 9.59 for the first, 9.05 for the second.

Compared with “AACCAATTATATTTACGTACGTACGGTTTTTTATAT [XGTACX_site1291]”, “ATATATTAATATACTCGTACATATTCTTATTGTGTA [XGTACX_site3728]” is lower in “gcPBM binding intensity (ln)” value: 9.72 for the first, 9.36 for the second.

Going from “AATATATTTTTTTTTTGTACATATTGTAAAATAATA [XGTACX_site6805]” to “GTGTAGTTAAAAAAAAGTACAGATTTTTTTTTTTTT [XGTACX_site849]”, the “gcPBM binding intensity (ln)” value falls from 9.09 to 8.99.

Going from “ATAGAATATTGATATTGTACGTTATCTTAAAACAAT [XGTACX_site1702]” to “AAAAAAAAAAAAACAAGTACAAAGGATAGAAAAAAA [XGTACX_site4133]”, the “gcPBM binding intensity (ln)” value rises from 9.09 to 9.61.

Compared with “ATAAGAACGTCTATGTGTACGCAGCAAAACTGAGTT [XGTACX_site6385]”, “TTGTATTACATAAATGTTCTTTATTATTTGATAAAA [CACACA_negctrl_site903]” is lower in “gcPBM binding intensity (ln)” value: 9.25 for the first, 8.78 for the second.

First: TATATAATATATTAATGTACTTAAAATATATTCTAT [XGTACX_site1235]
Second: TAAAATATATTGCCAGTGCATAATATATGTAATTAT
The “gcPBM binding intensity (ln)” value of the first is lower: 9.07 for the first, 9.22 for the second.

Going from “TTTTTTAAATATTAAAAATGGGATCTTATAACATAT [GTGCAC_negctrl_site666]” to “TGTATAAACCCACGTACACACACTAAGTATATCCAA [CACACA_site1605]”, the “gcPBM binding intensity (ln)” value rises from 8.76 to 9.67.

First: TAAACAAATAAATAAACACACAATATAGGTATATAT [CACACA_site7739]
Second: AACTAATAAAAAAAAAAAACATTAAACAGGACAAAT [XGTACX_negctrl_site287]
The “gcPBM binding intensity (ln)” value of the first is lower: 9.72 for the first, 9.78 for the second.

Compared with “TTATTTTTAACGTACGCACACATATAAATATATTTA [CACACA_site1976]”, “TTGTTTTTAGTTTATACACACCATATTAAAATAATG [CACACA_site5675]” is lower in “gcPBM binding intensity (ln)” value: 9.43 for the first, 9.36 for the second.

First: AATAAAATATACTATTGTACATATGGAACTACTTGA [XGTACX_site8928]
Second: ATTTATTATATATAGTGTACGTTCTTAATTATAATT [XGTACX_site7480]
The “gcPBM binding intensity (ln)” value of the first is higher: 9.41 for the first, 9.4 for the second.

Compared with “TTATAAAAATACAGTTAACACACATGTGTATATATA [CACACA_site9257]”, “GATCGCATGAAATGAACACACATAAAAAAAATATAC [CACACA_site4087]” is higher in “gcPBM binding intensity (ln)” value: 9.48 for the first, 9.51 for the second.

First: AAAAAAAAAATATACACACACACATACCCATAAATA [CACACA_site5981]
Second: AAAATAATCTTATGCACACCAAAAATTTATATAATC [CACACA_site1235]
The “gcPBM binding intensity (ln)” value of the first is higher: 9.99 for the first, 9.43 for the second.

First: TAATGCAACATTTATGTGCACATAAATATTTTTTAA
Second: AAAACACAATTTATTACACACATATATTATAGATTA [CACACA_site6780]
The “gcPBM binding intensity (ln)” value of the first is lower: 9.02 for the first, 9.68 for the second.

“TTTATTTTAAATTTACGTACATAATTAATCATATTT [XGTACX_site7529]” and “ATAAAAAATTAGGACTGTACATAATTTTTGTGATTT [XGTACX_site2857]” are the same in “gcPBM binding intensity (ln)” value: 9.23 for the first, 9.23 for the second.

Compared with “TATATATATAAGGATAGTACATATATTTATATGATT [XGTACX_site4954]”, “GTATAATAAATGATAGCACACATATGTACTTATATA [CACACA_site8188]” is higher in “gcPBM binding intensity (ln)” value: 9.19 for the first, 9.4 for the second.

Going from “AAAATTATAAAATGGGCACACATGAATATTGTAGTA [CACACA_site5261]” to “ATGAAATTTATATCATGTACATACAAGAGAAAAAAA [XGTACX_site3326]”, the “gcPBM binding intensity (ln)” value falls from 9.62 to 9.32.

First: AGGTTATAATTGTTTTCACACATTTAAAAATGTTAT [CACACA_site5097]
Second: TTAACTTATTTGTAAAGTACATTAATAAAAAGAAAA [XGTACX_site1588]
The “gcPBM binding intensity (ln)” value of the first is higher: 9.39 for the first, 8.76 for the second.

First: GACTACACACAAGGGTGTACATATATATTATATATA [XGTACX_site2247]
Second: TTATATATTTCTATTGCACACTATATTTTATGAAGA [CACACA_site2910]
The “gcPBM binding intensity (ln)” value of the first is higher: 9.44 for the first, 9.32 for the second.

Going from “AATAAATAAATAAATATATATATATATATATATATA [CACACA_negctrl_site708]” to “ATATATATATATAATGCACACATTATAAATTATGTA [CACACA_site5802]”, the “gcPBM binding intensity (ln)” value rises from 8.86 to 9.18.

Compared with “TGTATATACATAAAGTGTACGTATATTTATATATAT [XGTACX_site4320]”, “TATTTTTATTTTACATTATTTGTTTATAATTCTTAA [CACACA_negctrl_site1358]” is higher in “gcPBM binding intensity (ln)” value: 9.17 for the first, 9.27 for the second.

Going from “AAAAAAAAAAAAAACACACAAACAAATGAATAAATA [CACACA_site3300]” to “GAGTTTTAATGTAATAGTACTTTAATTATTATATAT [XGTACX_site4527]”, the “gcPBM binding intensity (ln)” value falls from 9.77 to 9.37.

For “TTTTTTTTTTATTCATGTACGTATTTAAATAATTCT [XGTACX_site2651]”, the “gcPBM binding intensity (ln)” value was 9.22.

From the supplement of paper PMC11417369
